Results are given in words; binding and its absence hold for the method and conditions named. Some entries that bind do so weakly or less than the wild type. Tags and fused reporters may be left off the sequences shown.
T1: MinC (bacterial two-hybrid fusion) (E. coli) (UniProt P18196)
T1 sequence: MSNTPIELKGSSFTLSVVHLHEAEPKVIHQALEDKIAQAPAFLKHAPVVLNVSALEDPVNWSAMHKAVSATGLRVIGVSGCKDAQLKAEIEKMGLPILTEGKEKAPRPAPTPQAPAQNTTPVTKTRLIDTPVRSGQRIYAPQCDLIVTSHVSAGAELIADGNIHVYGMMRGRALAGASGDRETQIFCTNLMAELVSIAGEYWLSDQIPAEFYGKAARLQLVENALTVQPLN

Sequences of proteins named here, by UniProt entry; tags and fusion partners are left off.
UniProt P0AEZ3: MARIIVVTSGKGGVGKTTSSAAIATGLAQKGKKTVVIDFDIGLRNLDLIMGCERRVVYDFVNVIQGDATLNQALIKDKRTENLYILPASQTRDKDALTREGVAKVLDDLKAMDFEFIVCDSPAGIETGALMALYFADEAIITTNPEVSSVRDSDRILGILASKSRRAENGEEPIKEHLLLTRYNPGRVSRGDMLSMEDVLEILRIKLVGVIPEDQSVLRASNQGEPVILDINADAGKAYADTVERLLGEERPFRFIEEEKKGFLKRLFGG


Columns and labels:
Assay in all cases: two-hybrid; bacterial two-hybrid (CyaA T25 and T18 fusions) in E. coli DHP1; cultures spotted on LB plates with 0.5 mM IPTG and X-Gal, 30 °C, colour developed for 18 h; every protein cloned in pT18 and in pT25 for cross-examination
[1] = target: T1, MinC (bacterial two-hybrid fusion) (E. coli)
[2] = target: MinE (bacterial two-hybrid fusion) (E. coli) (UniProt P0A734)
[3] = target: MinD (bacterial two-hybrid fusion) (E. coli) (UniProt P0AEZ3)

| binding [1] | binding [2] | binding [3] | Binder |
| --- | --- | --- | --- |
| binds | binds | binds | Protein lysine acetyltransferase (bacterial two-hybrid fusion) (enzyme, UniProt P76594 1-886) MSQRGLEALLRPKSIAVIGASMKPNRAGYLMMRNLLAGGFNGPVLPVTPAWKAVLGVLAWPDIASLPFTPDLAVLCTNASRNLALLEELGEKGCKTCIILSAPASQHEDLRACALRHNMRLLGPNSLGLLAPWQGLNASFSPVPIKRGKLAFISQSAAVSNTILDWAQQRKMGFSYFIALGDSLDIDVDELLDYLARDSKTSAILLYLEQLSDARRFVSAARSASRNKPILVIKSGRSPAAQRLLNTTAGMDPAWDAAIQRAGLLRVQDTHELFSAVETLSHMRPLRGDRLMIISNGAAPAALALDALWSRNGKLATLSEETCQKLRDALPEHVAISNPLDLRDDASSEHYIKTLDILLHSQDFDALMVIHSPSAAAPATESAQVLIEAVKHHPRSKYVSLLTNWCGEHSSQEARRLFSEAGLPTYRTPEGTITAFMHMVEYRRNQKQLRETPALPSNLTSNTAEAHLLLQQAIAEGATSLDTHEVQPILQAYGMNTLPTWIASDSTEAVHIAEQIGYPVALKLRSPDIPHKSEVQGVMLYLRTANEVQQAANAIFDRVKMAWPQARVHGLLVQSMANRAGAQELRVVVEHDPVFGPLIMLGEGGVEWRPEDQAVVALPPLNMNLARYLVIQGIKSKKIRARSALRPLDVAGLSQLLVQVSNLIVDCPEIQRLDIHPLLASGSEFTALDVTLDISPFEGDNESRLAVRPYPHQLEEWVELKNGERCLFRPILPEDEPQLQQFISRVTKEDLYYRYFSEINEFTHEDLANMTQIDYDREMAFVAVRRIDQTEEILGVTRAISDPDNIDAEFAVLVRSDLKGLGLGRRLMEKLITYTRDHGLQRLNGITMPNNRGMVALARKLGFNVDIQLEEGIVGLTLNLAQREES |
| binds | binds | binds | 6-phosphofructokinase isozyme 1 (bacterial two-hybrid fusion) (enzyme, UniProt P0A796 1-320) MIKKIGVLTSGGDAPGMNAAIRGVVRSALTEGLEVMGIYDGYLGLYEDRMVQLDRYSVSDMINRGGTFLGSARFPEFRDENIRAVAIENLKKRGIDALVVIGGDGSYMGAMRLTEMGFPCIGLPGTIDNDIKGTDYTIGFFTALSTVVEAIDRLRDTSSSHQRISVVEVMGRYCGDLTLAAAIAGGCEFVVVPEVEFSREDLVNEIKAGIAKGKKHAIVAITEHMCDVDELAHFIEKETGRETRATVLGHIQRGGSPVPYDRILASRMGAYAIDLLLAGYGGRCVGIQNEQLVHHDIIDAIENMKRPFKGDWLDCAKKLY |
| binds | – | – | Putative acid-amine ligase (bacterial two-hybrid fusion) (protein, UniProt P0ADT5 1-386) MERVSITERPDWREKAHEYGFNFHTMYGEPYWCEDAYYKLTLAQVEKLEEVTAELHQMCLKVVEKVIASDELMTKFRIPKHTWSFVRQSWLTHQPSLYSRLDLAWDGTGEPKLLENNADTPTSLYEAAFFQWIWLEDQLNAGNLPEGSDQFNSLQEKLIDRFVELREQYGFQLLHLTCCRDTVEDRGTIQYLQDCATEAEIATEFLYIDDIGLGEKGQFTDLQDQVISNLFKLYPWEFMLREMFSTKLEDAGVRWLEPAWKSIISNKALLPLLWEMFPNHPNLLPAYFAEDDHPQMEKYVVKPIFSREGANVSIIENGKTIEAAEGPYGEEGMIVQQFHPLPKFGDSYMLIGSWLVNDQPAGIGIREDRALITQDMSRFYPHIFVE |
| – | binds | binds | Universal stress protein E (bacterial two-hybrid fusion) (protein, UniProt P0AAC0 1-316) MAMYQNMLVVIDPNQDDQPALRRAVYLHQRIGGKIKAFLPIYDFSYEMTTLLSPDERTAMRQGVISQRTAWIHEQAKYYLNAGVPIEIKVVWHNRPFEAIIQEVISGGHDLVLKMAHQHDRLEAVIFTPTDWHLLRKCPSPVWMVKDQPWPEGGKALVAVNLASEEPYHNALNEKLVKETIELAEQVNHTEVHLVGAYPVTPINIAIELPEFDPSVYNDAIRGQHLLAMKALRQKFGINENMTHVEKGLPEEVIPDLAEHLQAGIVVLGTVGRTGISAAFLGNTAEQVIDHLRCDLLVIKPDQYQTPVELDDEEDD |
| no binding | no binding | no binding | Ubiquinol oxidase subunit 2 (bacterial two-hybrid fusion) (protein, UniProt P0ABJ1 1-315) MRLRKYNKSLGWLSLFAGTVLLSGCNSALLDPKGQIGLEQRSLILTAFGLMLIVVIPAILMAVGFAWKYRASNKDAKYSPNWSHSNKVEAVVWTVPILIIIFLAVLTWKTTHALEPSKPLAHDEKPITIEVVSMDWKWFFIYPEQGIATVNEIAFPANTPVYFKVTSNSVMNSFFIPRLGSQIYAMAGMQTRLHLIANEPGTYDGISASYSGPGFSGMKFKAIATPDRAAFDQWVAKAKQSPNTMSDMAAFEKLAAPSEYNQVEYFSNVKPDLFADVINKFMAHGKSMDMTQPEGEHSAHEGMEGMDMSHAESAH |
| no binding | no binding | no binding | Phosphoglycerate kinase (bacterial two-hybrid fusion) (enzyme, UniProt P0A799 1-387) MSVIKMTDLDLAGKRVFIRADLNVPVKDGKVTSDARIRASLPTIELALKQGAKVMVTSHLGRPTEGEYNEEFSLLPVVNYLKDKLSNPVRLVKDYLDGVDVAEGELVVLENVRFNKGEKKDDETLSKKYAALCDVFVMDAFGTAHRAQASTHGIGKFADVACAGPLLAAELDALGKALKEPARPMVAIVGGSKVSTKLTVLDSLSKIADQLIVGGGIANTFIAAQGHDVGKSLYEADLVDEAKRLLTTCNIPVPSDVRVATEFSETAPATLKSVNDVKADEQILDIGDASAQELAEILKNAKTILWNGPVGVFEFPNFRKGTEIVANAIADSEAFSIAGGGDTLAAIDLFGIADKISYISTGGGAFLEFVEGKVLPAVAMLEERAKK |

Reference: paper PMC4858940
